From US20210138025A1, “CATIONIC PEPTIDES WITH IMMUNOMODULATORY AND/OR ANTI-BIOFILM ACTIVITIES” (priority 2018, published 2021)
Part of at least one peptide drawing is inferred or uncertain, most often the ends. Some entries repeat one wording, which the source may state once for all of them. Some results were stated once for a whole list of compounds, not compound by compound. No end group written: not given here.

Key:
CCL5 [1] = assay: CCL5 production by peptide alone and in presence of Con A, canine cells (Table 21); type: cell-based; conditions: for % CCL5 production relative to that of LPS/ConA: peptide 32 μg/ml
Description: (§1) A subset of peptides was tested for stimulation of the chemokine CCL5 (Table 21).

LPS stimulated monocytes = assay: Anti-inflammatory activity in LPS stimulated monocytes, bovine (Table 23); type: cell-based; conditions: 32 μg/ml peptide, negative = increase
MCP-1 = MCP-1 chemokine induction in human PBMCs, ELISA (Tables 6, 7; FIGS. 6-9, 13); type: cell-based; conditions: SPOT synthesized peptide alone, ~25 μM, PBMCs from 3 human donors; Table 6
Description: Venous blood (20 ml) from healthy volunteers was collected in Vacutainer® collection tubes containing sodium heparin as an anticoagulant (Becton Dickinson, Mississauga, ON) in accordance with UBC ethical approval and guidelines. Blood was diluted 1:1 with complete RPMI 1640 medium and separated by centrifugation over a Ficoll-Paque® Plus (Amersham Biosciences, Piscataway, N.J., USA) density gradient. White blood cells were isolated from the buffy coat, washed twice in PBS and then resuspended in RPMI 1640 complete medium (containing 10% fetal bovine serum), and the number of peripheral blood mononuclear cells (PBMC) was determined by Trypan blue exclusion. PBMCs (5×10^5) were seeded into 12-well tissue culture dishes (Falcon; Becton Dickinson) at 0.75-1×10^6 cells/ml at 37° C. in 5% CO2. The above conditions were chosen to mimic conditions for circulating blood monocytes entering tissues at the site of infection via extravasation.
Following incubation of the cells under various treatment regimens, the tissue culture supernatants were centrifuged at 1000×g for 5 min, then at 10,000×g for 2 min to obtain cell-free samples. Supernatants were aliquoted and then stored at −20° C. prior to assay for various chemokines by capture ELISA (eBioscience and BioSource International Inc., CA, USA respectively)

T-lymphocytes [2] = assay: Anti-inflammatory activity towards stimulated T-lymphocytes, bovine (Table 25); type: cell-based; conditions: Bovine T-cells, 32 μg/ml of peptide
CCL5 [3] = assay: CCL5 production by peptide alone and in presence of LPS, bovine cells (Table 21); type: cell-based; conditions: peptide 32 μg/ml
Description: as §1

[4] = test system: ConA stimulated monocytes; assay: Anti-inflammatory activity in ConA stimulated monocytes, canine (Table 23); type: cell-based; conditions: 32 μg/ml peptide, negative = increase
T-lymphocytes [5] = assay: Anti-inflammatory activity towards stimulated T-lymphocytes, canine (Table 25); type: cell-based; conditions: Canine T-cells, 32 μg/ml of peptide
S. aureus (MRSA SAP0017) = type: cell-based, Staphylococcus aureus; conditions: for % Residual MRSA biofilm growth compared to untreated control: SPOT synthesized peptide, ~12.5 μM, clinical MRSA strain, crystal violet assay
Description: Methods of assessment of anti-biofilm activity: MRSA S. aureus strain SAP0017 biofilm formation was initially analyzed using a static abiotic solid surface assay as described elsewhere (de la Fuente-Nunez et al., 2012) and shown graphically in FIG. 2. Dilutions (1/100) of overnight cultures were incubated in BM2 biofilm-adjusted medium [62 mM potassium phosphate buffer (pH 7), 7 mM (NH4)2SO4, 2 mM MgSO4, 10 μM FeSO4, 0.4% (wt/vol) glucose, 0.5% (wt/vol) Casamino Acids], or a nutrient rich medium such as Tryptic soy broth supplemented with 1% glucose, in polypropylene microtiter plates (Falcon, United States) in the absence (control) or presence of peptide. Peptide was added at time zero (prior to adding the diluted, overnight cultures) in varying concentrations, and the amount biofilm formation was recorded after 22-46 h incubation for most bacteria. To quantify biofilm growth, planktonic cells were removed and biofilm cells adhering to the side of the wells were stained with crystal violet, and absorbance at 595 nm was measured using a microtiter plate reader (Bio-Tek Instruments Inc., United States).

[6] = Peptide aggregation in sodium phosphate buffer, turbidity at 600 nm; type: physicochemical; conditions: 1 mg/ml peptide, sodium phosphate buffer pH 7.0, turbidity at 600 nm

## LAGLIVKWAGVR-NH2 [Peptide 3017, LAGLIVKWAGVR]
CCL5 [1]; Canine/ConA Monocyte
  % CCL5 production relative to that of LPS/ConA: 98%
CCL5 [1]; Canine/ConA T-cells
  % CCL5 production relative to that of LPS/ConA: 31%
CCL5 [1]; ConA stimulated T-cells
  anti-inflammatory effect (CCL5) in ConA stimulated T-cells (in words): not as effective
LPS stimulated monocytes
  % Monocyte cytokine decrease in presence of LPS/ConA, IFNγ: 80.0%
  % Monocyte cytokine decrease in presence of LPS/ConA, IL-2: 88.4%
  % Monocyte cytokine decrease in presence of LPS/ConA, IL-4: 58.9%
  % Monocyte cytokine decrease in presence of LPS/ConA, IL-6: 28.3%
  % Monocyte cytokine decrease in presence of LPS/ConA, IL-13: 79.8%
  % Monocyte cytokine decrease in presence of LPS/ConA, TNFα: 17.8%
MCP-1
  MCP1 production in PBMC: 784 pg/mL
T-lymphocytes [2]
  % Cytokine decrease in the presence of LPS/ConA: IFNγ: 86.8%
  % Cytokine decrease in the presence of LPS/ConA: IL-2: 83.7%
  % Cytokine decrease in the presence of LPS/ConA: IL-4: 23.3%
  % Cytokine decrease in the presence of LPS/ConA: IL-6: 11.1%
  % Cytokine decrease in the presence of LPS/ConA: IL-13: 72.8%
  % Cytokine decrease in the presence of LPS/ConA: TNFα: −10.9%
CCL5 [3]; Bovine/LPS Monocyte
  % CCL5 production relative to that of LPS/ConA: 104%
CCL5 [3]; Bovine/LPS T-cells
  % CCL5 production relative to that of LPS/ConA: 122%
[4]
  % Monocyte cytokine decrease in presence of LPS/ConA, IFNγ: 65.7%
  % Monocyte cytokine decrease in presence of LPS/ConA, IL-2: 34.2%
  % Monocyte cytokine decrease in presence of LPS/ConA, IL-4: 58.5%
  % Monocyte cytokine decrease in presence of LPS/ConA, IL-6: −2.2%
  % Monocyte cytokine decrease in presence of LPS/ConA, IL-13: 4.0%
  % Monocyte cytokine decrease in presence of LPS/ConA, TNFα: 7.1%
T-lymphocytes [5]
  % Cytokine decrease in the presence of LPS/ConA: IFNγ: 73.9%
  % Cytokine decrease in the presence of LPS/ConA: IL-2: 49.9%
  % Cytokine decrease in the presence of LPS/ConA: IL-4: 55.4%
  % Cytokine decrease in the presence of LPS/ConA: IL-6: 42.4%
  % Cytokine decrease in the presence of LPS/ConA: IL-13: 25.5%
  % Cytokine decrease in the presence of LPS/ConA: TNFα: 9.9%
S. aureus (MRSA SAP0017)
  % Residual MRSA biofilm growth compared to untreated control: 100%

## RRQWRGWVRIWL-NH2 [Peptide 3005, RRQWRGWVRIWL]
[6]
  aggregation in phosphate buffer (turbidity, in words): considerably lower aggregation than 1018
MCP-1
  MCP1 production in PBMC: 4294 pg/mL
S. aureus (MRSA SAP0017)
  % Residual MRSA biofilm growth compared to untreated control: 33%

## VIKWLLKILRAI-NH2 [Peptide 3001, VIKWLLKILRAI]
[6]
  aggregation in phosphate buffer (turbidity, in words): considerably lower aggregation than 1018
MCP-1
  MCP1 production in PBMC: 5935 pg/mL
S. aureus (MRSA SAP0017)
  % Residual MRSA biofilm growth compared to untreated control: 2%

## WKKVQWLKRLLL-NH2 [Peptide 3003, WKKVQWLKRLLL]
[6]
  aggregation in phosphate buffer (turbidity, in words): almost no aggregation
[6]; listed as Peptide 3003
  aggregation in phosphate buffer (turbidity, in words): considerably lower aggregation than 1018
MCP-1
  MCP1 production in PBMC: 12298 pg/mL
S. aureus (MRSA SAP0017)
  % Residual MRSA biofilm growth compared to untreated control: 19%
S. aureus (MRSA SAP0017); peptide >95% purity, static microtitre plate assay, MRSA
  antibiofilm activity compared to 1018 (in words): superior and/or equivalent anti-biofilm activity compared to peptide 1018
